Results: PubChem BioAssay AID463173 (ICCB-Longwood Screening Facility, Harvard Medical School, 2010)
In all, about 52,000 compounds went through this assay and about 1,700 (3.3%) were called active. Cut-off read from the data, not from the text of the source: active = survival mostly below about 52% (no sharp cut-off); inactive = mostly above about 56%. Some of the results follow.

What follows are molecules tested on Wild type (assay: growth inhibition of S. aureus wild type versus tarO mutant, primary screen, teichoic acid synthesis inhibitors, RN4220, OD600 (AID 463173)). Details: S. aureus RN4220 wild type/DeltatarO growth, OD600, 18 h, stronger effect = lower value, screened at 18.75 µg/mL (by protocol).

| Structure (SMILES) | survival |
| --- | --- |
| CCCc1nn(C)c2c(=O)[nH]c(-c3cc(S(=O)(=O)N4CCN(C)CC4)ccc3OCC)nc12 | inactive: 104% |
| O=C(Nc1ccccc1C(F)(F)F)c1noc2c1CCCCC2 | inactive: 64% |
| CC(C)(C)c1nc(NCc2cccs2)c2nnn(Cc3ccccc3Cl)c2n1 | inactive: 104% |
| CCc1cccc(C)c1Nc1c(-c2ccc(N3CCOCC3)cc2)nc2ncccn12 | inactive: 77% |
| CC(=O)c1ccc(NC(=O)C2CCCN(S(=O)(=O)c3cn(C)cn3)C2)cc1 (centres undefined) | inactive: 87% |
| CCOC(=O)c1cc2c(=O)n3ccccc3nc2n(Cc2ccco2)c1=NC(=O)c1ccccc1OC | inactive: 64% |
| Cc1ccc(NC(=O)C2CCCN(c3nnc(C)c4c(C)n(-c5ccccc5)nc34)C2)cc1Cl (centres undefined) | inactive: 73% |
| Cc1c2cnn(CC(=O)Nc3ccc(F)cc3F)c(=O)c2c(C)n1Cc1cccc(Cl)c1 | inactive: 124% |
| Cc1ccc(-c2nnn(CC(=O)N(Cc3cccs3)C(C(=O)NCC3CCCO3)c3ccc(F)cc3)n2)o1 (centres undefined) | inactive: 121% |
| COc1ccc(-n2nc3c(c2NC(=O)C(=O)N2CCN(C)CC2)CSC3)cc1 | inactive: 84% |
| CC(C)(C)C(=O)CNS(=O)(=O)c1ccc(S(=O)(=O)N2CCCC2)cc1 | inactive: 99% |
| Cc1cc(C)cc(OCC(=O)Nc2cccc(-c3nc4ccccc4[nH]3)c2)c1 | inactive: 50% |
| O=C(Cn1c(=O)n(-c2ccc(F)cc2)c(=O)c2sccc21)Nc1cccc(C(F)(F)F)c1 | inactive: 72% |
| CC1CCCC(C)N1CCNC(=O)c1cn(C(C)c2ccccc2F)nn1 (centres undefined) | inactive: 104% |
| Cc1ccc(-n2nc3c(=O)n(C(C)C(=O)O)nc(C)c3c2C)cc1 (centres undefined) | inactive: 86% |
| COc1cccc(CNC(=O)Cn2c(=O)oc3cc(S(=O)(=O)N4CCC(C)CC4)ccc32)c1 | inactive: 132% |
| O=C(O)c1ccc(N=NN2CCCCC2)cc1 | inactive: 104% |
| CCOC(=O)N1CCN(C(=O)CN(Cc2ccc(F)cc2)S(=O)(=O)c2ccc(C)cc2)CC1 | inactive: 104% |
| COc1ccc(Cn2c(C(=O)O)c(CNCCc3ccccc3Cl)c3ccc(C)cc32)cc1 | inactive: 59% |
| CN(C)CCCNc1c2c(nc3cc(-c4cccc(F)c4)nn13)CCC2 | inactive: 106% |
| CCC(=O)N1CCc2cc(S(=O)(=O)CCC(=O)NCc3ccc(F)cc3)ccc21 | inactive: 87% |
| c1ccc2oc(SCc3nc4c5c6c(sc5ncn4n3)CCCC6)nc2c1 | inactive: 112% |
| Cc1cccc(NC(=O)CSc2nnc(-c3ccoc3C)n2CC(C)C)c1C | inactive: 107% |

| Structure (SMILES) | survival |
| --- | --- |
| CC(C)NC(=O)c1cc2c(Cl)nc3ccccc3c2s1 | inactive: 80% |
| Cc1cc(O)c(C(=O)c2cnc3c(c2)COc2ccccc2-3)cc1Cl | inactive: 64% |
| Cc1ccc(CNC(=O)c2ccc3c(c2)N(Cc2cccc(Cl)c2)C(=O)CS3)cc1 | inactive: 70% |
| CCn1c(N2CCN(C(=O)Nc3ccc(Cl)c(C(F)(F)F)c3)CC2)nc2ccccc21 | active: 0% |
| CCOc1ccc(NC(=O)Cn2cc(C(=O)c3ccc(C)c(C)c3)c(=O)c3cc(F)ccc32)cc1 | inactive: 89% |
| CCC1(C)Cc2ccccc2/C(=C/C(=O)N2CCCCC2)N1 (centres undefined) | inactive: 102% |
| Cc1ccc(Cl)cc1NC(=O)Cn1c(=O)n(CCC(=O)N2CCc3ccccc3C2)c(=O)c2ccccc21 | inactive: 132% |
| CCOc1ccc2nc(N3CCCC(C(=O)NCCc4ccc(SC)cc4)C3)sc2c1 (centres undefined) | inactive: 114% |
| COc1cc(NC(=O)CSc2nc3nc(C)c(Cc4ccccc4)c(C)n3n2)cc(OC)c1 | inactive: 121% |
| O=C(NCc1ccccc1)C1CCCN(C(=O)Nc2ccccc2)C1 (centres undefined) | inactive: 104% |
| O=S(=O)(NC1=NCCS1)c1ccc(N=NN2CCCCC2)cc1 | inactive: 114% |
| CCN(c1ccc(C)cc1C)S(=O)(=O)c1nnc(NC(=O)CC(C)C)s1 | inactive: 79% |
| COc1cccc(NC(=O)CSc2cc(C)[nH]c(=O)n2)c1 | inactive: 68% |
| CCN(CC)c1nn2c(=O)c(C(=O)NCc3cccc(OC)c3OC)cnc2s1 | inactive: 72% |
| NC(CC(=O)OC1CCCCC1)C(=O)OC1CCCCC1 (centres undefined) | inactive: 116% |
| Cc1cccc(NCN2C(=O)S/C(=C/c3ccc(N(C)C)cc3)C2=O)c1 | inactive: 115% |
| COCCCNC(=O)c1sc2nc(C)c(C(=O)Nc3ccc(Cl)cc3)c(-c3ccc(Br)cc3)c2c1N | inactive: 77% |
| CC1N=C2c3ccccc3N=C(SCC(=O)NCc3ccc(Cl)cc3)N2C1=O (centres undefined) | inactive: 68% |
| CCS(=O)(=O)N1CC(=O)N(c2cccc(C)c2C)C(C)(C(=O)NC2CCCCCC2)C1 (centres undefined) | inactive: 69% |
| O=S(=O)(NCc1ccco1)c1cccc(S(=O)(=O)N2CCCCC2)c1 | inactive: 116% |
| Cc1cc2c(C)cc(=O)oc2c2c1NCCC2 | inactive: 104% |
| COc1cccc(-c2n[nH]c3c2C(c2cccc(O)c2)N(C)C3=O)c1 (centres undefined) | inactive: 80% |
| Cc1nc(SCC(=O)Nc2ccccc2Cl)cc(-c2ccccc2)n1 | inactive: 87% |

| Structure (SMILES) | survival |
| --- | --- |
| Cc1c2cnn(-c3ccccc3)c(=O)c2c(C)n1CC(=O)N1CCN(c2cccc(Cl)c2)CC1 | inactive: 92% |
| COc1ccc(CNC(=O)c2cnn(-c3ccc(OC)cc3)c2C2CCN(C(=O)OC(C)(C)C)CC2)cc1 | inactive: 76% |
| COCCCNc1ncnc2ccc(Br)cc12 | inactive: 114% |
| CN1CCN(C(=O)c2ccc(N(C)S(C)(=O)=O)cc2)CC1 | inactive: 112% |
| Cc1ccccc1OCC(=O)NCC(c1ccc(Cl)cc1)N1CCOCC1 (centres undefined) | inactive: 74% |
| Cc1cccc2c1-c1sc(C(=O)Nc3ccccc3C(N)=O)cc1CO2 | inactive: 87% |
| CCC(=O)Nc1cc(-c2nc3cc(C)cc(C)c3o2)ccc1C | inactive: 78% |
| CCCCOc1ccc(S(=O)(=O)Nc2ccc(-c3ccc(N4CCCCC4)nn3)cc2)cc1 | inactive: 73% |
| CCc1cc2c(cc3c(=O)n(CC(=O)NC4CCC(C)CC4)nc(CC)n32)s1 (centres undefined) | inactive: 126% |
| O=C(Nc1cccc2cccnc12)c1cccc2c(Br)cccc12 | inactive: 77% |
| O=C1c2oc3ccccc3c(=O)c2C(c2ccccc2F)N1Cc1ccc2c(c1)OCO2 (centres undefined) | inactive: 74% |
| Cc1cc(C)cc(NC(c2cccc(Cl)c2)c2nnc(-c3ccccc3)o2)c1 (centres undefined) | inactive: 91% |
| Cc1c(C(=O)N(C)c2ccccc2)sc2nc(-c3ccc(F)cc3)cn12 | inactive: 74% |
| COc1ccc(NC(=O)Cn2ccn(Cc3ccccc3)c(=O)c2=O)cc1Cl | inactive: 90% |
| CCN(CC)C(=O)CSc1nnc(Cc2ccccc2)n1CC | inactive: 103% |
| CCc1ccccc1NC(=O)Cn1c(C(=O)OC)cc2oc(C)cc21 | inactive: 94% |
| CCOC(=O)c1ccc(NC(=O)c2cccc3c(=O)c4c([nH]c23)CCCC4)cc1 | inactive: 73% |
| CCN(CC)CCNC(=O)c1sc2nc(C)cc(C)c2c1-n1cccc1 | inactive: 85% |
| COc1ccc(-n2c(Cc3ccccc3)nnc2SCc2nc(-c3ccccc3C)no2)cc1 | inactive: 75% |
| Cc1ccc2onc(CNC(=O)N(C)Cc3ccccc3)c2c1 | inactive: 84% |
| O=C1c2[nH]nc(-c3ccccc3O)c2C(c2cccc(Br)c2)N1Cc1ccncc1 (centres undefined) | inactive: 84% |
| CN(C(=O)CSc1cn(CC(=O)N2CCCC2)c2ccccc12)c1ccccc1 | inactive: 83% |
| O=C(Nc1ccc(Br)cc1F)c1ccc2nc(CCc3ccccc3)oc2c1 | inactive: 101% |

| Structure (SMILES) | survival |
| --- | --- |
| COc1ccc(Nc2nc(-c3ccccc3)c3cc(Br)ccc3n2)cc1 | inactive: 37% |
| Cc1ccc(N(C)S(=O)(=O)c2ccc(-c3cnc(C4CC4)o3)cc2)cc1 | inactive: 76% |
| CCn1c(CN2CCCCC2)nc2cc(NC(=O)COc3cc(C)ccc3C(C)C)ccc21 | inactive: 83% |
| O=C(Cn1ncc2c3ccccc3n(Cc3ccc(F)cc3)c2c1=O)NC1CCCCCC1 | inactive: 81% |
| NC(=O)Cn1cnc2sc3c(c2c1=O)CCCC3 | inactive: 105% |
| CCOC(=O)c1cc(-c2ccccc2)n(-c2cccc(C(=O)NC(C)CC)c2)c1C (centres undefined) | inactive: 22% |
| Clc1ccccc1CNc1nc2ccccc2c2nc(-c3ccccc3)nn12 | inactive: 106% |
| O=C(C1CCCCC1)N(Cc1cccnc1)c1nc2c(F)cccc2s1 | inactive: 117% |
| CC(C)Oc1ccc(CNC(=O)c2ccc3c(c2)N(Cc2ccc(F)cc2)CCS3)cc1 | inactive: 80% |
| Cc1ccc(C)c(NC(=O)N2CCN(c3nnc(C)c4c(C)n(-c5ccccc5)nc34)CC2)c1 | inactive: 92% |
| COc1cc2c(cc1OC)C(COc1ccccc1OC)N(C(=O)c1ccc(S(=O)(=O)N3CCCC3)cc1)CC2 (centres undefined) | active: 0% |
| CCOc1ccccc1NC(=O)c1c(NC(=O)Cc2ccccc2)sc2c1CCCC2 | inactive: 87% |
| Cc1cc(C)c(S(=O)(=O)Nc2ccc(-c3ccc(N4CCCCC4)nn3)cc2)c(C)c1 | inactive: 98% |
| CCC(C)NC(=O)C1CCCN(S(=O)(=O)c2ccc(C)c(Cl)c2)C1 (centres undefined) | inactive: 109% |
| COc1ccc(C)cc1NC(=O)CN1CCCN(S(=O)(=O)c2ccc(Br)cc2)CC1 | inactive: 124% |
| CCNc1ccc2noc3c2c1C(=O)c1ccccc1-3 | inactive: 130% |
| Cn1cc(C(=O)N2CCN(c3cccc(Cl)c3)CC2)c(=O)c2cc(S(=O)(=O)N3CCCC3)ccc21 | inactive: 132% |
| COCCCNC(=O)CN1C(=O)COc2ccc(S(=O)(=O)N3CCOCC3)cc21 | inactive: 116% |
| COC(=O)c1cc(OC)c(OC)c(OC)c1NC(=O)c1cc(=O)n(C)c(=O)n1C | inactive: 85% |
| CCOc1ccc(NC(=O)CSc2ccc3ccccc3n2)cc1 | inactive: 67% |
